In all, about 16,000 sequences were measured (“Z-score”: median about -0.37, highest 2% from about 3.1 on). Some of the results follow.
These sequences were tested on RBM10 RRM1-ZnF-RRM2 (GST-tagged construct) (assay: RNAcompete 7-mer binding Z-score; higher = stronger binding preference).
How it was run: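 A one-sided Z-score for enrichment, taken across the probes containing each heptamer motif, was assigned to every such motif. The RNA came from a designed pool of 241 399 sequences up to 41 nt (1.5 nmol), bound by 20 pmol of GST-tagged RBM10 constructs in 1 ml Hepes pH 7.8 buffer with glutathione Sepharose beads for 30 min at 4°C. Four 2-min washes at 4°C preceded identification of bound RNA by microarray hybridisation.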

Compared with UCGGCGG, AAGUCGA is lower in “RNAcompete 7-mer binding Z-score” value: 0.388 for the first, -0.205 for the second.

Compared with CAGGCAU, CCAGCGU is lower in “RNAcompete 7-mer binding Z-score” value: 0.264 for the first, -0.5 for the second.

First: GGACCCA
Second: UAUAAGC
The “RNAcompete 7-mer binding Z-score” value of the first is higher: -0.202 for the first, -0.442 for the second.

First: CUGUCAC
Second: CAUAACC
The “RNAcompete 7-mer binding Z-score” value of the first is lower: -0.857 for the first, -0.744 for the second.

First: GAUAUGA
Second: GUUCGCC
The “RNAcompete 7-mer binding Z-score” value of the first is higher: 0.643 for the first, -0.544 for the second.

Going from ACAAGAG to AGGGCCG, the “RNAcompete 7-mer binding Z-score” value falls from 0.763 to 0.683.

Compared with UUAGGUA, AGGCCAC is lower in “RNAcompete 7-mer binding Z-score” value: 1.01 for the first, -0.595 for the second.

First: ACACGCU
Second: CUAUUCU
The “RNAcompete 7-mer binding Z-score” value of the first is higher: -0.581 for the first, -0.821 for the second.

Compared with GGGCGGC, UACCGGC is lower in “RNAcompete 7-mer binding Z-score” value: 1.91 for the first, -0.464 for the second.

Going from AAGGUGA to CUGUAAA, the “RNAcompete 7-mer binding Z-score” value falls from 3.62 to -0.606.

Going from UGGCUUC to AAAUCUA, the “RNAcompete 7-mer binding Z-score” value rises from -0.537 to -0.497.

First: UUUCAAA
Second: CGUAUUA
The “RNAcompete 7-mer binding Z-score” value of the first is lower: -0.537 for the first, -0.369 for the second.

First: AGUCCGU
Second: AGGUACC
The “RNAcompete 7-mer binding Z-score” value of the first is lower: -0.697 for the first, 0.101 for the second.

First: AAUGCGG
Second: AUCGUUG
The “RNAcompete 7-mer binding Z-score” value of the first is higher: 1.23 for the first, -0.522 for the second.

Compared with GUAACGC, UAAGCUU is lower in “RNAcompete 7-mer binding Z-score” value: -0.147 for the first, -0.661 for the second.

Going from CUAGCAA to ACUAUGA, the “RNAcompete 7-mer binding Z-score” value rises from -0.632 to -0.482.

Going from CAACGGC to CUUAAUU, the “RNAcompete 7-mer binding Z-score” value falls from -0.0379 to -0.836.

Compared with ACCGUUU, AAAGCGA is higher in “RNAcompete 7-mer binding Z-score” value: -1.01 for the first, 0.825 for the second.

Going from GGUAGCA to AACUUAG, the “RNAcompete 7-mer binding Z-score” value falls from 1.62 to -0.46.

Going from UUGAUAA to UUGCGCC, the “RNAcompete 7-mer binding Z-score” value falls from -0.515 to -0.683.

Compared with CCAGCUG, CCCGCAA is lower in “RNAcompete 7-mer binding Z-score” value: -0.653 for the first, -0.774 for the second.

Going from AACGUUA to GCCCCGC, the “RNAcompete 7-mer binding Z-score” value falls from -0.326 to -0.599.

Going from UUCAGGC to ACGAGGA, the “RNAcompete 7-mer binding Z-score” value rises from -0.315 to 1.53.

Going from UCGUCAA to CCUAUCU, the “RNAcompete 7-mer binding Z-score” value falls from -0.428 to -0.846.

Going from UCAUAAG to CUUCUGG, the “RNAcompete 7-mer binding Z-score” value falls from -0.57 to -0.708.

Compared with CCCGGAU, ACGACAG is higher in “RNAcompete 7-mer binding Z-score” value: -0.417 for the first, 0.355 for the second.

First: GGCCCAA
Second: CUAGUUC
The “RNAcompete 7-mer binding Z-score” value of the first is higher: -0.333 for the first, -0.832 for the second.

Compared with GCCGGUC, CGAUCAG is higher in “RNAcompete 7-mer binding Z-score” value: -0.377 for the first, 0.144 for the second.

First: UUCCAGG
Second: UGAAUGU
The “RNAcompete 7-mer binding Z-score” value of the first is higher: 0.0131 for the first, -0.0233 for the second.

Going from GUGAUCA to UCUCUAC, the “RNAcompete 7-mer binding Z-score” value falls from 0.323 to -0.785.

Going from GCCUGAU to GCAAAAC, the “RNAcompete 7-mer binding Z-score” value rises from -0.846 to 0.133.

First: AAGCGAU
Second: CUCCCAC
The “RNAcompete 7-mer binding Z-score” value of the first is higher: 0.264 for the first, -0.734 for the second.

Going from GGAGAGA to CAGUUCA, the “RNAcompete 7-mer binding Z-score” value falls from 1.26 to -0.537.

Compared with UUGAUGG, AUAGAGC is lower in “RNAcompete 7-mer binding Z-score” value: 0.993 for the first, 0.534 for the second.

First: GCGCAAA
Second: UCACCGU
The “RNAcompete 7-mer binding Z-score” value of the first is higher: -0.00512 for the first, -0.814 for the second.

First: AGGGUGA
Second: UAACGCC
The “RNAcompete 7-mer binding Z-score” value of the first is higher: 4.25 for the first, -0.857 for the second.

First: UUUAGUC
Second: CGACGCA
The “RNAcompete 7-mer binding Z-score” value of the first is lower: -0.519 for the first, -0.355 for the second.

Going from GUUCUCG to UGUUCGA, the “RNAcompete 7-mer binding Z-score” value rises from -0.661 to -0.606.

Compared with GAAUUCA, UAGGGAC is higher in “RNAcompete 7-mer binding Z-score” value: -0.238 for the first, 2.24 for the second.

Going from AGCGCGC to GGCUUGG, the “RNAcompete 7-mer binding Z-score” value rises from -0.282 to 0.956.

Going from AGCGGGA to UAGGAAA, the “RNAcompete 7-mer binding Z-score” value falls from 3.24 to 1.6.

Compared with GUCAUGG, CCAACGA is lower in “RNAcompete 7-mer binding Z-score” value: 0.862 for the first, -0.446 for the second.

Going from GUUAGCA to GGGGUUC, the “RNAcompete 7-mer binding Z-score” value rises from 0.232 to 1.83.

Compared with UUUUGUA, UGUAUGC is higher in “RNAcompete 7-mer binding Z-score” value: -0.737 for the first, -0.22 for the second.

First: UCUUCAG
Second: GGGUAUU
The “RNAcompete 7-mer binding Z-score” value of the first is lower: -0.781 for the first, 1.81 for the second.

Compared with UAACGAG, AGGGACC is higher in “RNAcompete 7-mer binding Z-score” value: 0.177 for the first, 0.756 for the second.

First: UCUAAAG
Second: CUGACGC
The “RNAcompete 7-mer binding Z-score” value of the first is higher: -0.544 for the first, -0.748 for the second.

First: CCAUCGG
Second: UUGAGGC
The “RNAcompete 7-mer binding Z-score” value of the first is lower: -0.613 for the first, 0.341 for the second.

First: GCUAGGG
Second: GAUAUUC
The “RNAcompete 7-mer binding Z-score” value of the first is higher: 1.94 for the first, -0.439 for the second.

First: CGUAUGA
Second: UUCUCGC
The “RNAcompete 7-mer binding Z-score” value of the first is higher: -0.00877 for the first, -0.737 for the second.

Going from AAGGCCA to GAGGUUG, the “RNAcompete 7-mer binding Z-score” value rises from 0.556 to 1.96.

First: AGUUAGA
Second: CGUAAUG
The “RNAcompete 7-mer binding Z-score” value of the first is higher: 0.286 for the first, 0.0932 for the second.

First: CAAUGGG
Second: AGACGCC
The “RNAcompete 7-mer binding Z-score” value of the first is higher: 3.4 for the first, -1.1 for the second.

Compared with AUCAUGC, AGCGCAA is higher in “RNAcompete 7-mer binding Z-score” value: -0.559 for the first, -0.187 for the second.

Going from UAUGACU to GUACCGC, the “RNAcompete 7-mer binding Z-score” value rises from -0.613 to -0.329.

Compared with CACCUAU, UCAGCUC is higher in “RNAcompete 7-mer binding Z-score” value: -0.978 for the first, -0.865 for the second.

Compared with UCAUCAU, UAGACCC is lower in “RNAcompete 7-mer binding Z-score” value: -0.515 for the first, -0.759 for the second.

Compared with AUUAUGG, GAUGAGA is lower in “RNAcompete 7-mer binding Z-score” value: 0.847 for the first, 0.789 for the second.

First: AACUCCC
Second: ACGAUGA
The “RNAcompete 7-mer binding Z-score” value of the first is lower: -0.919 for the first, 0.257 for the second.

Going from UGUAGAA to AAGUGGA, the “RNAcompete 7-mer binding Z-score” value rises from 0.13 to 3.2.

Going from UCUGCGA to CCCAACG, the “RNAcompete 7-mer binding Z-score” value rises from -0.73 to -0.475.

First: GAAUCUU
Second: ACCGGGG
The “RNAcompete 7-mer binding Z-score” value of the first is lower: -0.726 for the first, 1.7 for the second.

First: GAAUCAA
Second: UUAAGGU
The “RNAcompete 7-mer binding Z-score” value of the first is lower: 0.0896 for the first, 0.898 for the second.

Going from UGUUUUA to UCAGAGU, the “RNAcompete 7-mer binding Z-score” value rises from -0.588 to 0.0786.

First: UAGCGCG
Second: UCGUCCG
The “RNAcompete 7-mer binding Z-score” value of the first is higher: 0.13 for the first, -0.69 for the second.

Compared with GGCAAGC, UACGCCG is lower in “RNAcompete 7-mer binding Z-score” value: 0.53 for the first, -0.712 for the second.

First: UAUGUCU
Second: UACGCAG
The “RNAcompete 7-mer binding Z-score” value of the first is lower: -0.668 for the first, -0.187 for the second.

First: UUCAGUG
Second: CAAGGAA
The “RNAcompete 7-mer binding Z-score” value of the first is lower: 0.181 for the first, 1.77 for the second.

Going from CCCAGUU to CUGUGAU, the “RNAcompete 7-mer binding Z-score” value falls from -0.748 to -0.763.

Going from CUACAGC to GUGCUCU, the “RNAcompete 7-mer binding Z-score” value rises from -0.777 to -0.657.

First: AUGAUCU
Second: CACUUAU
The “RNAcompete 7-mer binding Z-score” value of the first is higher: -0.675 for the first, -0.897 for the second.

Compared with UUUAAUG, GAUCGCU is lower in “RNAcompete 7-mer binding Z-score” value: -0.471 for the first, -0.697 for the second.

Going from UAUGGCG to GGACCAA, the “RNAcompete 7-mer binding Z-score” value rises from 0.716 to 0.793.

Compared with AGGAAAC, UAUAUUC is lower in “RNAcompete 7-mer binding Z-score” value: 1.35 for the first, -0.588 for the second.

First: AUCGACG
Second: CACCUAC
The “RNAcompete 7-mer binding Z-score” value of the first is higher: -0.318 for the first, -0.657 for the second.

Compared with AUUAUCU, CGGACCA is higher in “RNAcompete 7-mer binding Z-score” value: -0.81 for the first, 0.13 for the second.

Going from GGGGUGC to AAAGGGC, the “RNAcompete 7-mer binding Z-score” value rises from 2.58 to 2.89.

Compared with GGGAGUA, AAACCGG is lower in “RNAcompete 7-mer binding Z-score” value: 2.34 for the first, 0.599 for the second.

First: UCUCAUG
Second: GAGUUUC
The “RNAcompete 7-mer binding Z-score” value of the first is lower: -0.741 for the first, -0.318 for the second.

Compared with AUAUAUA, ACAUGGU is higher in “RNAcompete 7-mer binding Z-score” value: -0.337 for the first, 1.07 for the second.

Compared with GACCAAG, UCUAGGC is lower in “RNAcompete 7-mer binding Z-score” value: -0.0124 for the first, -0.526 for the second.

Compared with ACUUAUG, AUCCUAU is lower in “RNAcompete 7-mer binding Z-score” value: -0.686 for the first, -0.814 for the second.

Compared with CUCAGUG, AAGUUUA is higher in “RNAcompete 7-mer binding Z-score” value: -0.482 for the first, -0.479 for the second.

First: UCCGUGA
Second: UCGAUCC
The “RNAcompete 7-mer binding Z-score” value of the first is higher: -0.632 for the first, -0.737 for the second.

First: CGCAAGG
Second: AUACAUG
The “RNAcompete 7-mer binding Z-score” value of the first is lower: 0.341 for the first, 0.403 for the second.

First: UUAAAGC
Second: UAUAUAG
The “RNAcompete 7-mer binding Z-score” value of the first is lower: -0.439 for the first, -0.184 for the second.

Going from GUCCCAC to AUUAGAA, the “RNAcompete 7-mer binding Z-score” value rises from -0.697 to -0.0343.

Compared with UAUAUUA, GGACGCG is higher in “RNAcompete 7-mer binding Z-score” value: -0.479 for the first, 1.35 for the second.

First: UUCCUAG
Second: UAUCCAA
The “RNAcompete 7-mer binding Z-score” value of the first is lower: -0.737 for the first, -0.73 for the second.

Compared with GCGGUCA, CGCCGGU is lower in “RNAcompete 7-mer binding Z-score” value: 0.0313 for the first, -0.413 for the second.

First: UGUUGGA
Second: UACCCGC
The “RNAcompete 7-mer binding Z-score” value of the first is higher: 0.585 for the first, -0.639 for the second.

With UAGGAAG the “RNAcompete 7-mer binding Z-score” value was 1.94.

Reference: the supplement of paper PMC5499739
